Results from PubChem BioAssay AID1460 (National Center for Advancing Translational Sciences (NCATS), 2008).
“And” between values parts separate entries of the source, which are not always exact repeats. Equal entries are not always repeated. Screen size: about 270,000 compounds; about 5,800 (2.1%) were called active. This list was built around the results that the source calls inconclusive (neither active nor inactive); the mix of calls is not that of the screen. The call rests on the fitted dose curve; in most records, active means well fitted inhibition curve with a large enough effect; inconclusive means small, poorly fitted or top-dose-only effect; inactive means flat fitted curve, though single readings scatter. Potencies beside an inconclusive call are fits to weak or partial responses and may not hold up.

Biological target: Microtubule-associated protein tau (Homo sapiens) (UniProt P10636)
Assay: qHTS for Inhibitors of Tau Fibril Formation, Thioflavin T Binding; further: nearly all actives have a fitted effect of over 55% in size
Conditions: recombinant tau K18 P301L (four-repeat tau fragment), heparin-induced fibrillization, ThT fluorescence; series mostly up to 57.4 µM; activity, negative = inhibition: at the top concentration
How it was run: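 In this qHTS, human K18 P301L tau is incubated with compound and heparin for 6 hr at 37 C, and Thioflavin T fluorescence then reports fibril load.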
On the % scale 0 is the no-effect control and ±100 the full control effect; potency means the concentration at half of the fitted maximal effect; tags describe the fitted curve by direction and shape.

Chain of UniProt P10636 (P10636 whole entry, looked up): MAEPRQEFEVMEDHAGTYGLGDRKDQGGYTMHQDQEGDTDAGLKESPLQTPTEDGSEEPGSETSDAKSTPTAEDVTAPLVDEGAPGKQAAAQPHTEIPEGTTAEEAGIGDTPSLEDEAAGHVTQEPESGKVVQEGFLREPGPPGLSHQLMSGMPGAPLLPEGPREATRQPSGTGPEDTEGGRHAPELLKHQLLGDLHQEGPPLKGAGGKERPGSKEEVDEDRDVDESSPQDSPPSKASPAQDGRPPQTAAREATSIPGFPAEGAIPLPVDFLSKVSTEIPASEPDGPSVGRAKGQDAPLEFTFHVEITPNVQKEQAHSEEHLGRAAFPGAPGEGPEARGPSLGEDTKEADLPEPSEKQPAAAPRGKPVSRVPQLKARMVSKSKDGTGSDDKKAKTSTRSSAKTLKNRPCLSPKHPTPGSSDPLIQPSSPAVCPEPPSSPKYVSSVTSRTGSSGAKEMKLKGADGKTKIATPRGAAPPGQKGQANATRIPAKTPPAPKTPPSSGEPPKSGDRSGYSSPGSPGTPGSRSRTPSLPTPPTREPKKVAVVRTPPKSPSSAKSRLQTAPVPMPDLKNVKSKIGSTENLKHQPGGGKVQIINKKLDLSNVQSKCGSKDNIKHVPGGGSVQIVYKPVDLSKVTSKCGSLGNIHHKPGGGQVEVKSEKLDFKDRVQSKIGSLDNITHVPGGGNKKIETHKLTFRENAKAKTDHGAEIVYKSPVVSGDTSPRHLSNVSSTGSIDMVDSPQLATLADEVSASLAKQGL

Row | Structure (SMILES) | Potency | activity, negative = inhibition
1 | Cc1ccc(C)c(N2CCN(C(=O)c3noc4c3CCCCC4)CC2)c1 | inconclusive: 10 µM [inhibitor, partial curve] | –
2 | CCOc1cccc2c1OC(c1cc(OC)c(OC)c(OC)c1)N1N=C(c3ccc(C)o3)CC21 (centres undefined) | inconclusive: 28.2 µM [inhibitor, partial curve] | –
3 | COc1ccc(C(=O)OCCc2ccc(O)cc2)cc1 | inconclusive: 8.91 µM [inhibitor, partial curve, poor fit] | –
4 | CCC(NC(=O)/C(=C\c1ccc2c(c1)OCO2)NC(C)=O)C(=O)O (centres undefined) | – | inactive: 5.24%
5 | COc1cc(/C=N/NC(=O)c2cccc([N+](=O)[O-])c2)ccc1O | inconclusive: 15.8 µM [inhibitor, partial curve] | –
6 | Cc1[nH]c2ccccc2c1C(c1ccccn1)c1c(C)[nH]c2ccccc12 | inconclusive: 31.6 µM [inhibitor, single point] | –
7 | Cc1cccc2c1N(CCOc1ccc(C(C)(C)C)cc1)C(=O)C2=O | inconclusive: 22.4 µM [inhibitor, partial curve] | –
8 | C=CCN=c1scc(-c2ccc3c(c2)NC(=O)CO3)n1/N=C(\C)c1ccccn1 | inconclusive: 11.2 µM [inhibitor, partial curve] | –
9 | Cc1csc(NC(=O)c2ccccc2C(=O)O)n1 | – | inactive: 1.88%
10 | CC1(OC(=O)C2CCCC2)C(=O)C=C2C=C(c3ccsc3)N(CCCCO)C=C2C1=O (centres undefined) | inconclusive: 2.82 µM [inhibitor, full curve] and inconclusive: 3.55 µM [inhibitor, single point] | –
11 | CCN(CC)CCCN1C(=O)C(O)=C(C(=O)c2ccco2)C1c1cc(OC)ccc1OC (centres undefined) | – | inactive: -4.03%
12 | CC(=O)c1cc2c(cc1N/C(=N/S(=O)(=O)c1ccc(Br)cc1)c1ccccc1)OCO2 | inconclusive: 25.1 µM [activator, single point] | –
13 | COC(=O)c1cc(C)[nH]c2c(C)cc3nc4ccccc4c3c12 | inconclusive: 28.2 µM [inhibitor, single point] | –
14 | C=CC1=C2C=C(C3CC3)N(CCN3CCOCC3)C=C2C(=O)C(C)(OC(=O)c2ccco2)C1=O (centres undefined) | – | inactive: -5.35% [at 11.5 µM]
15 | O=C(NCc1cccs1)c1ccc2ccccc2n1 | – | inactive: -8.09%
16 | COc1ccc(OC)c(NC(=O)/C=C/c2ccc(C)o2)c1 | inconclusive: 14.1 µM [inhibitor, partial curve] | –
17 | Cc1ccc(-c2ccc(NC(=O)C3C4C=CC(C4)C3C(=O)O)cc2)o1 (centres undefined) | inconclusive: 28.2 µM [inhibitor, partial curve] | –
18 | Cc1nc2scc(C)n2c(=O)c1S(=O)(=O)N1CCN(c2cccc(C(F)(F)F)c2)CC1 | inconclusive: 35.5 µM [inhibitor, single point] | –
19 | CN(C)c1ccc(NC(=O)Cn2cc(S(=O)(=O)Cc3cccc(Cl)c3)c3ccccc32)cc1 | inconclusive: 39.8 µM [inhibitor, single point] | –
20 | Cc1ccc(C)c(NC(=S)NC2CC3CCCC(C2)N3CC(C)C)c1 (centres undefined) | – | inactive: -5.97%
21 | COC(=O)c1c(C)[nH]c(C(=O)/C=C/c2ccccc2)c1C | inconclusive: 8.91 µM [inhibitor, partial curve] | –
22 | NC(=O)c1c(NC(=O)Cn2nc(C(=O)O)c3ccccc3c2=O)sc2c1CCC2 | inconclusive: 31.6 µM [inhibitor, single point] | –

Row | Structure (SMILES) | Potency | activity, negative = inhibition
23 | CCOC(=O)c1c(NC(=O)CSc2nnc(Cc3ccccc3)o2)sc(C)c1C | inconclusive: 35.5 µM [inhibitor, partial curve] | –
24 | CCOC(=O)CC(=O)CSc1ncnc2c1nnn2-c1ccc(F)cc1 | inconclusive: 31.6 µM [inhibitor, single point] | –
25 | CN1C(=O)SC(Nc2cccc3ccccc23)C1=O (centres undefined) | inconclusive: 3.55 µM [inhibitor, partial curve, poor fit] | –
26 | O=C(C1CCCN(S(=O)(=O)c2cccc3nsnc23)C1)N1CCN(c2ccccc2Cl)CC1 (centres undefined) | inconclusive: 5.01 µM [inhibitor, partial curve] | –
27 | CCOc1ccccc1Nc1ncnc2c1cnn2-c1ccccc1 | inconclusive: 20 µM [inhibitor, partial curve] | –
28 | CCC(CC)C(=O)c1c[nH]c(C(=O)NCCc2ccccn2)c1 | – | inactive: -4.6%
29 | CCN(CC)C(=O)CSc1ncnc2c1nnn2-c1ccc(F)cc1 | inconclusive: 17.8 µM [inhibitor, partial curve] | –
30 | O=[N+]([O-])c1ccc(/C=C/c2ccc3ccccc3n2)cc1 | inconclusive: 2.82 µM [inhibitor, full curve] | –
31 | Cc1ccc(-c2nnc3c4ccccc4c(C)nn23)cc1NC(=O)c1ccccc1Cl | inconclusive: 17.8 µM [inhibitor, partial curve] | –
32 | COc1ccc(N2CCN(c3oc(COc4ccccc4)nc3C#N)CC2)cc1 | inconclusive: 2.82 µM [inhibitor, full curve, poor fit] | –
33 | CCC(=O)N1CCc2cc(S(=O)(=O)NC(Cc3ccccc3)C(=O)Nc3cccc(OC)c3)ccc21 (centres undefined) | – | inactive: 6.51%
34 | CCC(C)[C@H](NC(=O)Nc1ccc(C(C)=O)cc1)C(=O)OC (some centres undefined) | – | inactive: -4.09%
35 | CCOCCCN(C(=O)Cn1nnc2ccccc21)C(C(=O)NCc1ccco1)c1ccncc1 (centres undefined) | inconclusive: 20 µM [inhibitor, single point] | –
36 | Clc1ccccc1/C=C/C=N/Nc1nc(N2CCOCC2)nc(N2CCOCC2)n1 | inconclusive: 20 µM [inhibitor, single point] | –
37 | CC(=O)N1CC(=O)N=C1SCC(=O)Nc1nc(C)c(-c2ccccc2)s1 | inconclusive: 12.6 µM [inhibitor, partial curve] | –
38 | O=C(/C=C/c1ccc2c(c1)OCO2)c1ccc(F)cc1 | inconclusive: 14.1 µM [inhibitor, partial curve] | –
39 | CCC(=O)NC(=S)Nc1ccc(NC(=O)COc2ccc(Cl)c(C)c2)cc1 | inconclusive: 7.08 µM [inhibitor, partial curve] | –
40 | CCOC(=O)c1c(N)c2cc([N+](=O)[O-])cnc2n1C | inconclusive: 1.58 µM [inhibitor, full curve] | –
41 | CC(C)=C1SC(N2CCN(c3ccc(C)c(Cl)c3)CC2)=NC1=O | inconclusive: 0.501 µM [inhibitor, full curve] | –
42 | CSC1=NC(C)(C)C=C(/C=C/c2ccc(Cl)cc2Cl)N1 | inconclusive: 31.6 µM [inhibitor, partial curve] | –
43 | CN(C)c1ccc2nsnc2c1[N+](=O)[O-] | inconclusive: 12.6 µM [inhibitor, partial curve] | –
44 | Cc1ccc(-n2nc(C)c3c2OC(N)=C(C#N)C3c2ccncc2)cc1 (centres undefined) | inconclusive: 8.91 µM [inhibitor, partial curve] | –

Row | Structure (SMILES) | Potency | activity, negative = inhibition
45 | CCOC(=O)c1c(NC(=O)c2cccs2)sc(C)c1CC | inconclusive: 20 µM [inhibitor, partial curve] | –
46 | Cc1cc(C)c2[nH]c(=O)c(CN(CC3CCCO3)C(=S)NCc3ccco3)cc2c1 (centres undefined) | – | inactive: 5.94%
47 | CCOc1cc(N2CCOCC2)c(OCC)cc1NC(=O)c1ccc(OCc2c(C)noc2C)c(OC)c1 | inconclusive: 22.4 µM [inhibitor, partial curve] | –
48 | CCCOc1ccc(N2C(=O)CC(N(O)c3ccccc3)C2=O)cc1 (centres undefined) | inconclusive: 15.8 µM [inhibitor, partial curve, poor fit] | –
49 | Cc1ccc(C)c(NC(=O)C(c2ccccc2)N2CCOCC2)c1 (centres undefined) | – | inactive: 10.6%
50 | O=C(COC(=O)C1CC(=O)N(Cc2ccco2)C1)c1ccc(OC(=O)c2ccco2)cc1 (centres undefined) | – | inactive: 0.35%
51 | Cc1ccccc1N=C1NN=C(c2ccccc2F)CS1 | active: 28.2 µM | –
52 | Cc1noc(C)c1COC(=O)c1cccc(S(=O)(=O)N2c3ccccc3CC2C)c1 (centres undefined) | inconclusive: 39.8 µM [inhibitor, single point] | –
53 | COc1ccc2c(c1)c1nc3ccccc3nc1n2CC(=O)OC(C)C | inconclusive: 2.82 µM [inhibitor, full curve, poor fit] | –
54 | COc1ccccc1CNC(=O)CCC1N=C2c3ccccc3N=C(SCc3ccc(C)cc3)N2C1=O (centres undefined) | – | inactive: 0.35%
55 | CCc1cccc2nc3c(c([Si](C)(C)C)c12)Cn1c-3cccc1=O | inconclusive: 39.8 µM [inhibitor, single point] | –
56 | CC(C)c1ccc(/C=N/NC(=O)c2cc(-c3cccc([N+](=O)[O-])c3)n[nH]2)cc1 | inconclusive: 0.794 µM [inhibitor, full curve] | –
57 | CCC(=O)NC(c1ccc(C)cc1)c1cc([N+](=O)[O-])c2cccnc2c1O (centres undefined) | inconclusive: 17.8 µM [inhibitor, partial curve] | –
58 | COc1ccc(C(=O)/C=C2/c3ccccc3CC(C)(C)N2C)cc1 | inconclusive: 12.6 µM [inhibitor, partial curve] | –
59 | Cc1ccc(C2C(C#N)=C(N)SC(N)=C2C#N)cc1 | inconclusive: 14.1 µM [inhibitor, partial curve] | –
60 | O=C(COC(=O)c1cccc(Cl)c1)Nc1cc(Cl)ccc1Oc1ccccc1 | – | inactive: -7.12%
61 | COc1ccc(-c2cnn3c(C)cc(C)nc23)cc1OC | inconclusive: 17.8 µM [inhibitor, single point] | –
62 | CCOc1ccc(NC(=O)/C=C\C(=O)N(c2ccc(C(C)C)cc2)C(C(=O)NCc2ccco2)c2ccc(F)cc2)cc1 (centres undefined) | inconclusive: 10 µM [inhibitor, partial curve] | –
63 | CCOc1ccc(-c2nc(SCC(=O)NC3CCCC3)c(-c3ccccc3)[nH]2)cc1OC | inconclusive: 25.1 µM [inhibitor, partial curve, poor fit] | –
64 | COc1cccc(-c2nc(SCC(=O)NC3CCCC3)c(-c3ccccc3)[nH]2)c1 | – | inactive: -14.8%
